US20130251703A1 (Novartis, published 2013)

Columns and labels:
[1] = biological target: T1, MOR12604; assay: solution equilibrium titration (SET), ECL readout; soluble HER3-Tag (human, by the legend of FIG. 1) titrated against a constant amount of MOR12604 IgG, remaining free IgG detected
T1 construct: Tested as IgG

[2] = biological target: T2, MOR12615; assay: solution equilibrium titration (SET), ECL readout; soluble human HER3-Tag titrated against a constant amount of MOR12615 IgG, remaining free IgG detected
T2 construct: Tested as IgG
T2 sequence (VH, as listed by the source, chain 1 of 2): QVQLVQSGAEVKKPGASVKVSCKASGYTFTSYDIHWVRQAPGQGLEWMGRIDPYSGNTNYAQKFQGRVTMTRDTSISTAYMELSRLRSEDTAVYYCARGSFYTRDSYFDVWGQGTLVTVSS
T2 sequence (VL, as listed by the source, chain 2 of 2): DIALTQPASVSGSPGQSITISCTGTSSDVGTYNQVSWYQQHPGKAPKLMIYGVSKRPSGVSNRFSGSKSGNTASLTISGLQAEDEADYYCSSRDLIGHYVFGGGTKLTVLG

T1 sequence (VH, as listed by the source, chain 1 of 2): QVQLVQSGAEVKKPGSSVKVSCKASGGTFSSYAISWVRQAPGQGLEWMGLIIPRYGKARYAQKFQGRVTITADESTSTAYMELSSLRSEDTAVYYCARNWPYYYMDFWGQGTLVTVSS
T1 sequence (VL, as listed by the source, chain 2 of 2): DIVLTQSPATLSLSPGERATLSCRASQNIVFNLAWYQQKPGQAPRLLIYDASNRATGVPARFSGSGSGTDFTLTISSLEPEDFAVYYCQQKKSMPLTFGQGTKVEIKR

- IC50 (read off the curve) [1]: ~3 nM
- IC50 (read off the curve) [2]: ~0.3 nM
B1: Hu HER3: CD33-[Human HER3, […]]-TAG (receptor)
chain: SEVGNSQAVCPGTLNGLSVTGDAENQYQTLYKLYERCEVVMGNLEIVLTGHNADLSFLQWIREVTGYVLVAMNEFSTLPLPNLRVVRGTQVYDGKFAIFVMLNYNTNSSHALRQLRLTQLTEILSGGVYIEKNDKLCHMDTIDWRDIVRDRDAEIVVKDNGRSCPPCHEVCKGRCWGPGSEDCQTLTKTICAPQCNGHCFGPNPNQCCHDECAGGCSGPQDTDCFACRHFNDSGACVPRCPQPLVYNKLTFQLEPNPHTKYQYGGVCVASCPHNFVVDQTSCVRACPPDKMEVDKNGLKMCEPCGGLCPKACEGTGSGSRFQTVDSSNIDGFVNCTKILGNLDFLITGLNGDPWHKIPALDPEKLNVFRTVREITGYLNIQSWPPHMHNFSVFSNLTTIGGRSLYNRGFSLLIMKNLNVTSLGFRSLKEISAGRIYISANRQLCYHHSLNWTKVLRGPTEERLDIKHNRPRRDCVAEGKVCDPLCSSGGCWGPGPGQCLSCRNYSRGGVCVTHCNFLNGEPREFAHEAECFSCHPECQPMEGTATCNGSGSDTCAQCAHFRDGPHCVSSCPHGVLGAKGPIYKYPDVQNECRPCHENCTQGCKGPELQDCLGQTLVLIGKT
notes: also called hu HER3-Tag; HER3-Tag; not shown: C-terminal TAG (e.g. FLAG TAG)
